In PubChem BioAssay AID624171 (National Center for Advancing Translational Sciences (NCATS), 2012):
In all, about 410,000 compounds went through this assay and about 1,200 (0.29%) were called active. The inconclusive results got no clear call from the source; some entries with a clear call stand among them for comparison. The call rests on the fitted dose curve; in most records, active means well fitted activation curve with a large enough effect; inconclusive means small, poorly fitted or top-dose-only effect; inactive means flat fitted curve, though single readings scatter. Potencies of inconclusive entries are doubtful fits and often do not repeat.

Experiment: qHTS of Nrf2 Activators; further: nearly all actives have a fitted effect of over 65% in size; on activation: % of control where 0% means no effect
Details: AREc32 ARE-luciferase reporter (MCF7-derived line), luminescence, 24 h; activation: at 46.1 µM (top of the series)
Outline: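 Steps: seed AREc32_Fluc cells (1000/well, 5% FBS OPTI-MEM); incubate overnight at 37 deg C; add 23 nL compound; incubate 24 hr; add Steady-Glo; hold 30 min RT; read luminescence.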
Potency means the concentration at half of the fitted maximal effect; tags describe the fitted curve by direction and shape.

Structure (SMILES)	Potency	activation
Nc1nc(-c2ccccc2)c(N=Nc2ccc(Cl)cc2)s1	inconclusive: 15.8 µM [activator, partial curve, poor fit]	
Cc1cc(=O)oc2c(C(=O)/C=C/c3ccccc3)c(O)ccc12	inconclusive: 2.82 µM [activator, full curve, poor fit]	
O=C(Nc1ccc(F)cc1)Nc1cccnc1Cl	inconclusive: 11.2 µM [activator, partial curve, poor fit]	
Cc1ccccc1/C=C1\CCCc2ccccc2C1=O	inconclusive: 17.8 µM [activator, single point]	
O=C(NCc1ccco1)c1cc2sccc2n1Cc1ccccc1	inconclusive: 15.8 µM [activator, partial curve, poor fit]	
O=C(Nc1ccccn1)c1ccc(Cl)s1	inconclusive: 22.4 µM [activator, single point]	
CC(Oc1ccccc1)C(=O)Nc1cccc(-c2cn3cccnc3n2)c1 (stereo unspecified)		inactive: 4.86%
CN1CCN(S(=O)(=O)c2ccc(Sc3nnnn3-c3ccccc3)c([N+](=O)[O-])c2)CC1	inconclusive: 3.55 µM [activator, full curve, poor fit]	
Cn1nnnc1Sc1ncnc2scc(-c3cccc4c3sc3ccccc34)c12	inconclusive: 3.16 µM [activator, single point]	
Cc1ccccc1NC1=C(Cl)C(=O)OC1OC(=O)c1ccccc1C (stereo unspecified)	inconclusive: 20 µM [activator, single point]	
CC(/C=N\NC(=O)CN1CCN(Cc2ccccc2)CC1)=C\c1ccco1	inconclusive: 11.2 µM [activator, partial curve]	
COc1ccc([C@H]2[C@H](C(=O)OC(C)(C)C)N3N=Cc4ccccc4C3C23C(=O)c2ccccc2C3=O)c(OC)c1 (stereo partly specified)	inconclusive: 17.8 µM [activator, single point]	
O=C(COc1ccc(Cl)cc1Cl)N/N=C/c1ccc[nH]1		inactive: 9.07%
O=C(Nc1sc2c(c1C(=O)NC1CC1)CCCCCC2)c1ccco1	inconclusive: 11.2 µM [activator, single point]	
Nc1cc2[nH]c(=O)c3ccccc3c2cc1Br	inconclusive: 11.2 µM [activator, partial curve, poor fit]	
CN1CCN(c2cc(N3CCN(C(=O)c4ccco4)CC3)c3c4c(onc24)-c2ccccc2C3=O)CC1		inactive: -0.663%
O=C(NNS(=O)(=O)c1ccc([N+](=O)[O-])cc1)c1cnn(-c2ccccc2)c1-n1cccc1		inactive: 0.149%
COc1cc(Br)cc(/C=C/c2ccc3cccc(O)c3n2)c1O	inconclusive: 2 µM [activator, full curve, poor fit]	
O=C(O)CN1C(=O)/C(=C\c2cc(Br)ccc2OCc2ccc(Cl)cc2Cl)SC1=S	inconclusive: 2.82 µM [activator, full curve]	
Cc1cc(Br)ccc1OCCNCc1ccccc1		inactive: 7.08%
O=C1/C(=C/c2ccncc2)SC(=S)N1Nc1ccccc1	inconclusive: 31.6 µM [activator, single point]	
CC(C)n1c(O)c(N=Nc2ccccn2)c2ccccc21	active: 12.6 µM	
CC1=C(C(=O)OCc2ccccc2)C(c2cccc(Br)c2)NC(=O)N1 (stereo unspecified)		inactive: -0.245%
O=C(c1ccco1)N(CCCN1CCOCC1)c1nc(-c2ccc(F)cc2)cs1		inactive: 0.104%

Structure (SMILES)	Potency	activation
COCCN(C(=O)COC(=O)c1ccccc1Nc1ccccc1)c1c(N)n(Cc2ccccc2)c(=O)[nH]c1=O		inactive: 0.518%
Cn1nccc1C(=O)N/N=C/c1ccccc1[N+](=O)[O-]	inconclusive: 12.6 µM [activator, partial curve, poor fit]	
COc1ccc(C(=O)CCN2CCCCCC2)cc1	inconclusive: 22.4 µM [activator, single point]	
O=C1CC(c2ccco2)CC(O)=C1C=Nc1cc(Cl)ccc1O (stereo unspecified)	active: 10 µM	
Cc1ccc(C(=O)c2c3ccc([N+](=O)[O-])cc3[n+]([O-])n2CCCN)cc1	inconclusive: 22.4 µM [activator, single point]	
FC(F)(F)c1ccc(Cl)c(-n2c(-c3ccco3)n[nH]c2=S)c1	inconclusive: 22.4 µM [activator, single point]	
O=c1c2ccccc2nc2c3ccccc3c(NCc3ccco3)nn12	inconclusive: 5.62 µM [activator, partial curve]	
O=C(CNC(=S)NC(=O)c1ccccc1Br)c1ccccc1	active: 2.24 µM	
O=C(/C=C/Nc1ccc(F)c(Cl)c1)c1ccccc1	active: 11.2 µM	
Cc1ccc2cccnc2c1NC(=S)NC(=O)c1ccccc1	inconclusive: 3.98 µM [activator, full curve]	
C=CCNC(=O)/C(C#N)=C/c1c(N2CCN(c3cccc(Cl)c3)CC2)nc2c(C)cccn2c1=O		inactive: 2.12%
CC(C)(C)C(=O)CSc1ncnc2sc3c(c12)CCC3	inconclusive: 20 µM [activator, single point]	
O=C(CSc1nc(-c2ccco2)nc2cc(=O)[nH]n12)Nc1ccccc1F	inconclusive: 17.8 µM [activator, partial curve, poor fit]	
O=[N+]([O-])c1ccc(Cl)cc1N/N=C/c1ccncc1	active: 1 µM	
CCOC(=O)c1c(C)[nH]c(C(=O)C(C)Cl)c1C (stereo unspecified)	active: 17.8 µM	
CCOC(=O)C1=C(C)NC2=C(C(=O)c3ccccc32)C1c1ccc([N+](=O)[O-])o1 (stereo unspecified)	active: 14.1 µM	
O=C(CSc1ccc(-c2cccs2)nn1)Nc1cccc(F)c1		inactive: 6.93%
CC1=C(C(=O)Nc2ccc(C)cn2)C(c2cnn(C)c2)C2=C(CCCC2=O)N1 (stereo unspecified)		inactive: -0.0881%
O=C(N/N=C/c1cccc2ccccc12)c1cccs1	inconclusive: 10 µM [activator, partial curve, poor fit]	
COc1ccc(C(=O)/C=C/c2cc(OC)c(O)c(OC)c2)c(F)c1	active: 15.8 µM	
Cc1ccc(/C(C#N)=C\c2ccc(N3CCOCC3)o2)cc1	inconclusive: 7.08 µM [activator, partial curve, poor fit]	
c1ccc(Nc2nnc(-c3cccc4ccccc34)o2)cc1	inconclusive: 4.47 µM [activator, full curve]	
CC(=O)c1sc(Nc2ccccc2)nc1C	inconclusive: 8.91 µM [activator, partial curve]	
COC(=O)c1c(NC(=O)CCS(=O)(=O)c2ccccc2)sc2c1CCN(C)C2	inconclusive: 25.1 µM [activator, single point]	

Structure (SMILES)	Potency	activation
Cc1ccc(Cl)cc1NC(=O)Cn1cc(S(=O)(=O)Cc2ccccc2Cl)c2ccccc21		inactive: 1.1%
O=C(/C=C/c1ccc(-c2ccccc2[N+](=O)[O-])o1)c1ccc(F)cc1	inconclusive: 7.94 µM [activator, partial curve, poor fit]	
COc1ccc2oc(=O)c(-c3nc4ccccc4o3)cc2c1	inconclusive: 11.2 µM [activator, partial curve]	
CC(C)c1onc(C(=O)Nc2cccnc2Cl)c1[N+](=O)[O-]	inconclusive: 22.4 µM [activator, single point]	
CCN(CC)Cc1c(O)ccc2c(=O)c(Oc3ccccc3OC)coc12		inactive: 0.102%
Cc1ccc(-n2nnnc2Sc2nc([N+](=O)[O-])nn2C)c(C)c1	inconclusive: 17.8 µM [activator, single point]	
S=C(NCc1ccco1)Nc1ccc(Cl)cn1	inconclusive: 11.2 µM [activator, partial curve, poor fit]	
Cc1ccc(-c2nc(NCCN(C)C)c3ccccc3n2)cc1	inconclusive: 25.1 µM [activator, single point]	
CCCCC(CC)CNC(=O)CCS(=O)(=O)c1cccc2nsnc12 (stereo unspecified)		inactive: -0.538%
CCC(=O)Nc1nc2c(OC)ccc(C)c2s1	inconclusive: 10 µM [activator, partial curve, poor fit]	
COCCn1c(=S)[nH]c2cc(C(=O)NCC3CCCO3)ccc2c1=O (stereo unspecified)		inactive: 0.218%
NC(=O)c1cc2c3ccccc3ccn2c1-c1ccccc1	active: 10 µM	
COc1ccccc1OCC(=O)Nc1cc(-c2ccc(C)cc2)no1	inconclusive: 20 µM [activator, partial curve, poor fit]	
CCCCn1c(CCNC(=O)c2cccs2)nc2ccccc21	inconclusive: 11.2 µM [activator, partial curve]	
COc1cccc([C@H]2Nc3ccc(S(=O)(=O)Nc4cc(C)ccc4C)cc3[C@H]3C=CC[C@H]32)c1		inactive: 3.71%
O=C(NCc1cccs1)c1cnc(Cl)c(Cl)c1	inconclusive: 22.4 µM [activator, single point]	
O=C(O)c1cn(-c2ccc(F)c(F)c2)c2c(F)c(F)c(F)c(F)c2c1=O	inconclusive: 15.8 µM [activator, single point]	
COC(=O)c1cc(NS(=O)(=O)c2cccs2)cc(NS(=O)(=O)c2cccs2)c1		inactive: -1.1%
C=CCNC(=S)NNC(=O)c1ccccc1OCC	inconclusive: 14.1 µM [activator, partial curve, poor fit]	
Cc1ccc(NC(=O)CCl)c(C)c1	inconclusive: 25.1 µM [activator, single point]	
Cn1c(Oc2cccnc2CN2CCCC2)nc2cc(-c3cccc(C(F)(F)F)c3)sc2c1=O	inconclusive: 20 µM [activator, partial curve, poor fit]	
COc1ccc(NC(=S)N(Cc2ccc(N(C)C)cc2)Cc2ccco2)cc1	inconclusive: 20 µM [activator, single point]	
Clc1cccc(Cl)c1COn1nnc2ccccc21	inconclusive: 2.82 µM [activator, partial curve, poor fit]	
